“And” between values parts separate entries of the source, which are not always exact repeats. Equal entries are not always repeated. The campaign covered roughly 310,000 compounds. About 18,000 (5.8%) were called active. The inconclusive results got no clear call from the source; some entries with a clear call stand among them for comparison. The call rests on the fitted dose curve; in most records, active means well fitted inhibition curve with a large enough effect; inconclusive means small, poorly fitted or top-dose-only effect, or another doubt; inactive means no such curve, though single readings can be large or run the other way. A potency beside an inconclusive call is a rough fit, not a confirmed value.
Experiment: Primary qHTS for delayed death inhibitors of the malarial parasite plastid, 48 hour incubation
Conditions: P. falciparum luciferase growth in erythrocytes; series mostly up to 28.7 µM; activity change, negative = inhibition: at the top concentration
Outline: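 A one-generation exposure of luciferase-tagged malaria parasites in RPMI 1640/Albumax erythrocyte culture, 37 C and 5% CO2. Inhibition is inferred from decreased luminescence after adding detection reagent.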
With `Cc1nc2ncnn2c(C)c1CCC(=O)NC(C)CCc1ccco1` (stereo unspecified) the “activity change, negative = inhibition” value was inactive: 9.68%. In the case of `CCOC(=O)c1sc(NC(=O)c2ccc(OC(C)=O)cc2)nc1C`, the “activity change, negative = inhibition” value is reported as inactive: 36.1%. With `CCCn1c(SCC(=O)Nc2ccccc2N2CCCCC2)nc2c1c(=O)n(C)c(=O)n2C` the Potency was inconclusive: 9.28 µM [inhibitor, partial curve, poor fit]. In the case of `O=C(CN1CCN(C(=O)C2CCCO2)CC1)Nc1cc(C(F)(F)F)ccc1Cl` (stereo unspecified), the Potency is reported as inconclusive: 18.5 µM [inhibitor, single point]. In the case of `Cn1cccc1P(=O)(c1cccn1C)c1cccn1C`, the Potency is reported as inconclusive: 13.1 µM [inhibitor, single point]. In the case of `Cc1cc2cc(CNC(=S)Nc3ccc(OC(F)F)cc3)ccc2n1C`, the Potency is reported as inconclusive: 18.5 µM [inhibitor, single point]. In the case of `COc1ccnc(Oc2ccccc2)c1C(=O)N/C=N/OCc1ccc(F)cc1Cl`, the “activity change, negative = inhibition” value is reported as inactive: -1.09%. With `Cc1ccc(Cn2ncc3c(N4CCN(Cc5ccc(Cl)cc5)CC4)ncnc32)cc1` the Potency was inconclusive: 10.4 µM [inhibitor, single point]. With `Cc1ccc2c(c1)C(C)(C)[C@]1(C)NC(=O)CCN21` the Potency was inconclusive: 1.47 µM [inhibitor, full curve, poor fit]. With `CCOC(=O)C1(CCc2ccccc2)CCN(Cc2cccc3c2OCO3)CC1` the Potency was inconclusive: 11.7 µM [inhibitor, single point]. In the case of `Nc1c(C(=O)Nc2ccc(S(=O)(=O)N3CCCC3)cc2)sc2nc3ccc(OC(F)(F)F)cc3cc12`, the Potency is reported as active: 10.4 µM. In the case of `Cc1cccc(NC(=O)COC(=O)c2cccc3c2C(=O)c2ccccc2C3=O)c1C`, the “activity change, negative = inhibition” value is reported as inactive: -25.3%. For `CCOC(=O)C1=C(C)N=c2s/c(=C\c3cccc(OCC(=O)O)c3)c(=O)n2C1c1ccccc1` (stereo unspecified), the Potency was active: 11.7 µM. For `CSc1ccc(C2(O)Cc3cccc[n+]3C2c2ccccc2)cc1` (stereo unspecified), the Potency was inconclusive: 9.28 µM [inhibitor, partial curve]. With `O=C(O)CSc1c2c(nc3cc(C(=O)Nc4cccc(C(F)(F)F)c4)ccc13)CCC2` the Potency was inconclusive: 16.5 µM [inhibitor, single point]. In the case of `CCS(=O)(=O)c1ccc2oc(Nc3ccccc3C)nc2c1`, the “activity change, negative = inhibition” value is reported as inactive: 128%. In the case of `O=C(Nc1ccc(-c2csc(Nc3ccccc3)n2)cc1)c1ccccc1`, the Potency is reported as inconclusive: 1.47 µM [inhibitor, partial curve]. For `CCn1c(SCc2cccc(F)c2)nnc1-c1cccnc1`, the “activity change, negative = inhibition” value was inactive: -9.56%. For `COc1ccc(/C(C)=N/NC(=S)NCCc2ccccc2)c(O)c1`, the Potency was active: 0.415 µM. In the case of `COc1cccc(-n2c(=O)c3sccc3n(CC(=O)NC3CCCCC3)c2=O)c1`, the “activity change, negative = inhibition” value is reported as inactive: -4.9%. With `Cc1cccc(NC(=O)c2ccc(NC(C)c3ccccc3)c([N+](=O)[O-])c2)n1` (stereo unspecified) the Potency was active: 9.28 µM. For `COc1ccc(NC(=O)Nc2ccc3c(c2)N(C)C(=O)CS3)cc1OC`, the Potency was inconclusive: 10.4 µM [inhibitor, single point]. In the case of `CCN1CCN(CCCNC(=O)c2ccc3c(Cl)c4c(nc3c2)CCCC4)CC1`, the Potency is reported as inconclusive: 16.5 µM [inhibitor, single point]. With `COc1ccc(/C=N/NC(=O)c2nn(-c3ccccc3)c(=O)c3c(N)scc23)cc1` the Potency was inconclusive: 1.04 µM [inhibitor, full curve]. In the case of `CCCN1Cc2cccc(C(=O)NCCc3cccc(C)c3)c2C1=O`, the Potency is reported as inconclusive: 11.7 µM [inhibitor, partial curve, poor fit]. For `CC(C)(C)C(=O)Nc1sc2c(c1C#N)CCC2`, the “activity change, negative = inhibition” value was inactive: -0.273%. With `COCCn1c(C23CC4CC(CC(C4)C2)C3)n[nH]c1=S` the Potency was inconclusive: 11.7 µM [inhibitor, partial curve]. For `N#C/C(=C(/O)CCl)c1nc2ccccc2[nH]1`, the Potency was inconclusive: 3.29 µM [inhibitor, partial curve]. In the case of `CC(=O)Nc1ccc(N2CCCC2)cc1`, the Potency is reported as inconclusive: 9.28 µM [inhibitor, partial curve, poor fit]. For `COc1ccccc1N1C(C)=CC(=C(C#N)c2nc3ccccc3s2)C=C1C`, the Potency was active: 9.28 µM. In the case of `CCS(=O)(=O)N1CCC(N2CCN(c3ccccc3)CC2)CC1`, the Potency is reported as inconclusive: 11.7 µM [inhibitor, single point]. With `CC1=CC(C)(C)Nc2ccccc21` the Potency was inconclusive: 16.5 µM [inhibitor, single point]. For `COC(=O)c1ccc(C)c(-n2c(C)cc(C=O)c2C)c1`, the “activity change, negative = inhibition” value was inactive: -27.8%. With `COc1ccc2c(c1)-c1c(ssc1=S)C(C)(C)N2C(=O)CSC1=NCCS1` the “activity change, negative = inhibition” value was inactive: 0%. In the case of `COc1ccc(C(C)=O)cc1COc1cccc2cccnc12`, the “activity change, negative = inhibition” value is reported as inactive: 4.02%. For `Cc1cc(C(=O)Nc2cc(C)n(Cc3ccc(Cl)cc3)n2)no1`, the Potency was active: 0.928 µM. For `CC(=O)Cn1cnc2c(cnn2-c2ccc(C)c(C)c2)c1=O`, the activity change, negative = inhibition was inactive: -16.8% [at 0.00184 µM]. For `CCc1c(C)c(C#N)c2nc3ccccc3n2c1NCCOC`, the Potency was active: 1.65 µM. For `O=C(COc1ccccc1)NCc1nnc2c3ccccc3c(-c3ccccc3)nn12`, the Potency was inconclusive: 3.29 µM [inhibitor, partial curve, poor fit]. In the case of `CCCc1nc2ccc(N)cc2c(=O)n1Cc1ccccc1Cl`, the “activity change, negative = inhibition” value is reported as inactive: 37.6%. With `CC(C)(C)c1ccc(NC(=O)COC(=O)c2ccc([N+](=O)[O-])s2)cc1` the “activity change, negative = inhibition” value was inactive: 21.8%. With `COc1ccc(OCCCC(=O)N2CCN(S(=O)(=O)c3cccc(F)c3)CC2)cc1` the Potency was inconclusive: 18.5 µM [inhibitor, single point]. In the case of `CC(=O)c1ccc(NC(=S)N(Cc2ccccc2)C(C)C2CC2)cc1` (stereo unspecified), the Potency is reported as active: 13.1 µM. In the case of `CCc1ccccc1SCc1noc(C(=O)NCC2CCCO2)c1C(=O)O` (stereo unspecified), the Potency is reported as inconclusive: 8.28 µM [inhibitor, partial curve, poor fit]. With `CC1CN=C(Nc2cccc(S(=O)(=O)N(C)C)c2)S1` (stereo unspecified) the “activity change, negative = inhibition” value was inactive: -16.2%. With `COc1ccccc1CCNC(=O)CCCn1nc(C)c2c(C)n(-c3ccc(C)cc3)nc2c1=O` the Potency was inconclusive: 5.22 µM [inhibitor, partial curve]. For `CCCCc1ncc(CN2CCN(Cc3ccc(C)cc3)C(CCO)C2)[nH]1` (stereo unspecified), the Potency was inconclusive: 5.22 µM [inhibitor, partial curve, poor fit]. With `CC1CCN(C(=O)COC(=O)C2CCN(S(=O)(=O)c3ccc(Cl)c(C(F)(F)F)c3)CC2)CC1` the Potency was inconclusive: 14.7 µM [inhibitor, single point]. In the case of `O=C(CCCN1CCC(C(=O)c2ccc(F)cc2)CC1)c1ccc(F)cc1`, the Potency is reported as inconclusive: 15.1 µM [inhibitor, partial curve, poor fit] and inconclusive: 7.38 µM [inhibitor, partial curve, poor fit]. In the case of `COc1cccc(/C=C2\SC(=O)N(CC(=O)NC3C=CS(=O)(=O)C3)C2=O)c1` (stereo unspecified), the Potency is reported as inconclusive: 9.28 µM [inhibitor, single point]. With `O=C(Nc1ccccc1)c1ccc(S(=O)(=O)N2CCCC2)cc1` the Potency was inconclusive: 10.4 µM [inhibitor, single point]. For `Cc1ccc(C(=O)N2CCN(c3ccccc3)CC2)cc1C`, the “activity change, negative = inhibition” value was inactive: 19.5%. With `Cc1ccc(N2C(=O)N(CC(=O)Nc3cccc(C)c3C)C(=O)C2C)cc1` (stereo unspecified) the “activity change, negative = inhibition” value was inactive: 15.1%. With `CCOc1ccc(CN=C(N)N=C(N)N)cc1Cl` the Potency was inconclusive: 11.7 µM [inhibitor, partial curve]. With `Cn1ncc([N+](=O)[O-])c1C(=O)Nc1ccc(-c2nc3ccccc3[nH]2)cc1` the Potency was inconclusive: 11.7 µM [inhibitor, single point]. In the case of `Cn1c(=O)oc2cc(S(=O)(=O)NCCN3CCCCCC3)ccc21`, the Potency is reported as inconclusive: 0.928 µM [inhibitor, full curve, poor fit]. With `CCc1ccc(CN2CCC(C(=O)Nc3ccc(-n4nc(C)cc4C)cc3)CC2)o1` the Potency was active: 6.57 µM. With `O=C1C2C3C=CC(C4CC34)C2C(=O)N1/N=C/c1cccs1` (stereo unspecified) the “activity change, negative = inhibition” value was inactive: -29.4%. With `CCCC(c1nnnn1CS(=O)(=O)c1ccc(C)cc1)N1CCN(CC)CC1` (stereo unspecified) the Potency was inconclusive: 18.5 µM [inhibitor, single point]. In the case of `O=C(N/N=C/c1cccnc1)c1ccc(CN2c3cccc4cccc(c34)S2(=O)=O)cc1`, the “activity change, negative = inhibition” value is reported as inactive: 13.8%. For `CCOC(=O)N1CCN(S(=O)(=O)c2ccc(C(=O)NNc3nc4ccc(Cl)cc4s3)cc2)CC1`, the “activity change, negative = inhibition” value was inactive: 0%. With `CN(C)CCNc1oc(COc2ccc(Cl)cc2Cl)nc1C#N` the “activity change, negative = inhibition” value was inactive: -27.3%. In the case of `CN(CCCNC(=O)c1cccn2c(=O)c3ccccc3nc12)Cc1ccccc1`, the Potency is reported as inconclusive: 14.7 µM [inhibitor, partial curve, poor fit]. For `CCNC(=S)/N=C(/Nc1ccc(OC)cc1)Nc1nc(C)cc(C)n1`, the Potency was inconclusive: 5.22 µM [inhibitor, partial curve, poor fit]. For `CCCN(CC(=O)Nc1ccccc1C)C(=O)c1cccc(S(=O)(=O)N2CCN(c3ccccc3)CC2)c1`, the Potency was inconclusive: 14.7 µM [inhibitor, single point]. For `Cc1ccccc1-n1ncc2c1CC(C)(C)CC2NC(=O)CSc1ccncc1` (stereo unspecified), the Potency was inconclusive: 13.1 µM [inhibitor, partial curve]. With `CC[n+]1c(/C=C2/C=C(C)CC(C)C2)sc2ccccc21` (stereo unspecified) the Potency was inconclusive: 6.57 µM [inhibitor, partial curve, poor fit]. In the case of `Cc1cccc(N2CCN(C(=O)CC(NC(=O)c3ccccc3)c3ccccc3)CC2C)c1` (stereo unspecified), the Potency is reported as inconclusive: 10.4 µM [inhibitor, single point]. In the case of `CN(CCOc1ccc(-c2ccn(S(=O)(=O)c3ccc(Cl)cc3)n2)cc1)c1ccccn1`, the Potency is reported as active: 10.4 µM. With `CC[C@H](C)C(N)c1cn([C@@H](CC(N)=O)C(=O)N2CCNCC2)nn1` (stereo partly specified) the “activity change, negative = inhibition” value was inactive: -18.5%. For `O=C(O)C(CCCCN1C(=O)c2ccccc2C1=O)N1C(=O)c2ccccc2C1=O` (stereo unspecified), the “activity change, negative = inhibition” value was inactive: 31.3%.
On the % scale 0 is the no-effect control and ±100 the full control effect; potency means the concentration at half of the fitted maximal effect; tags describe the fitted curve by direction and shape.
